These results are taken from the supplement of paper PMC11417369.

Some of the results follow.

This assay deals with PfSIP2 AP2 domain 1 (GST-tagged). Description: gcPBM binding intensity (ln(normalized median fluorescence intensity)); higher = stronger DNA binding. In short, it runs like this:
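The highest Masliner-normalised natural-log median intensity across replicate spots of either probe orientation is reported as binding intensity. GST-tagged P. falciparum DNA-binding domains expressed in E. coli were applied for 1 h to an Agilent 4 × 180k array of primer-extended double-stranded 36-bp intergenic genomic probes plus negative controls, and bound protein was detected with Alexa488 anti-GST antibody and scanned at 488 nm.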
With “AAAAGTGATGAGACAAGTACTAACATATTATTATTA [XGTACX_site1533]”, the “gcPBM binding intensity (ln)” value is 6.65.

In the case of “TTTTCTGTATAAACTTGTACATATATTTCCTTGTTT [XGTACX_site5745]”, the “gcPBM binding intensity (ln)” value was determined as 6.96. The figure for “AAATATATATGTATATGTACTTATTTATTTAAAAGG [XGTACX_site4093]” is 7.07; for “TTTATTATATATAAAAGTACACATTGTAAGGAAACA [XGTACX_site8560]” it is 7.53. The figure for ATACCTATTTGATGAGTGCATTATCCAATATATGTA is 9.53. For “ATGTTTTACAAAAACACACAAATGAATATAAACATA [CACACA_site6667]”, the “gcPBM binding intensity (ln)” value was found to be 6.88. The figure for “AAATAAAATATCAATTAAAACAGAATTGAATTTTTA [CACACA_negctrl_site181]” is 6.6; for “ATATGTTCTACAAAAAAGATGTCGATTTATTTTCTT [CACACA_negctrl_site1179]” it is 6.88. The figure for “AAAAAAAAAAAAAAATGTACAAATAGTAGTTACAGA [XGTACX_site2531]” is 7.29. As to “AACATGTTAAAATAAACACACAGCTAAGGTTTTTTT [CACACA_site157]”, the “gcPBM binding intensity (ln)” value turned out to be 6.72. The figure for “GCAAATGTGAAAACGTGTACACATTTTATTTAATTT [XGTACX_site8000]” is 7.4; for “ATAATATATGTATATCCACACACATATATATATATA [CACACA_site8471]” it is 9.46; for “ATTTAAGATTTAATCACACACATATATATTATATAC [CACACA_site2907]” it is 7.01.

For the sequence “AAATGTAGATATTATCGTACACATATATTTATATAT [XGTACX_site6326]”, the “gcPBM binding intensity (ln)” value amounted to 7.

Turning to “TATTTGTAAATCGATACACACATATATATTAATATA [CACACA_site196]”, the “gcPBM binding intensity (ln)” value came to 6.91. The figure for “AAAACATACCTATATACACACATATAAATATAAATA [CACACA_site6956]” is 7.13. The figure for “TTTGATATAGAAAGAGCATGCAAGTTAGATAAAATA [TGCATGCA_site470]” is 6.97; for “TATATATTAATATACACACACACATATATATATATA [CACACA_site1608]” it is 8.91; for “AATAAATTATTATGTACACACATAATAGTATATATA [CACACA_site1820]” it is 6.95. The result for “TTTCAAACTGTTCTCACACACGAAATTAGAAATGAA [CACACA_site4509]” reads 7.13. “AAAACAAAATAGGGAACACACACATGTCAATATATA [CACACA_site8834]”: the “gcPBM binding intensity (ln)” value worked out at 6.93. In the case of “TTTTTTTTTTTTTGGTTCACACTGAAAAGAGAGATA [GTGCAC_negctrl_site439]”, the “gcPBM binding intensity (ln)” value came to 7.25. The result for TTTTGTTATTTTGAAGTGCACTTTCCACTTAATATA reads 11; that for “CAATCATGGTTTTACACACACATGCATGTGAAAATT [CACACA_site4870]”, 6.97; that for “TCATGTTTTACAAAAACACACAAATGAATATAAACA [CACACA_site4775]”, 7.14. The figure for “TATATACATAGACACCCACACACAAAAAAAAAAAAA [CACACA_site8186]” is 7. Turning to “AATAAATAAAAATTATGTACATATATAAAAAATACA [XGTACX_site8581]”, the “gcPBM binding intensity (ln)” value is 7.36.

Take “TCGAATTTGGAAAGAAGTACATGAAGCCAACATATG [XGTACX_site5222]”: the “gcPBM binding intensity (ln)” value was 7.01. Turning to “TTTGAACGAAAATACTCACACATATTTATAAACATT [CACACA_site5182]”, the “gcPBM binding intensity (ln)” value stood at 6.73. Regarding “GTATTTTTAAATGACACACACATATATATATATATA [CACACA_site1662]”, the “gcPBM binding intensity (ln)” value came out at 9.21. The figure for “ATTTTTCATATATATATATTAATATATATATATTAA [CACACA_negctrl_site1681]” is 7.73. The result for “AAAAATATATTATATGTACACACAAAATTAAGGGAT [CACACA_site8384]” reads 7.5; that for “TGAATATTTATACATGCACACTAAAATAAAGAATCT [CACACA_site5351]”, 8.82. The result for “AAAATTTCTTTTTTTTGTACATATATAATAATATAT [XGTACX_site7107]” reads 6.92; that for “TCTTTCTCTCTTCAAAGTACATATAATATATACTTC [XGTACX_site7982]”, 7.15. Turning to “CAGTTAATGTTGGTACTTTATATAAAAATGATATGA [CACACA_negctrl_site1600]”, the “gcPBM binding intensity (ln)” value was 7.06. The result for “ATAACAACATTTGATAAACACACAGAAGTATAAATA [CACACA_site8739]” reads 7.11; that for “AAAATATAGTTATCAATATATAATATTTTTTTTTTA [CACACA_negctrl_site459]”, 6.69. “TTATTAATATTGCATGCACACTATATAATAATTGAA [CACACA_site8258]”: the “gcPBM binding intensity (ln)” value came out at 8.31. The figure for “TATAAATAGGCATATACACACTTTTAATATTCATAA [CACACA_site6123]” is 6.84; for “CAAACACCCAAACACACACACACATACATACATACA [CACACA_site8044]” it is 8.46. The figure for “ATAGTAATGCATAAATATATATTATATATATATATA [XGTACX_negctrl_site576]” is 9.1.

Turning to “CTATTGTTAAATATAATACACACGTTTTTAAAAATA [CACACA_site2183]”, the “gcPBM binding intensity (ln)” value is 6.97. The figure for “GTATATATTTTGTATTCATTTGTCACATATAATAGA [CACACA_negctrl_site506]” is 7.17; for “ATTATATATACATAATGTACATATATATATTACCTT [XGTACX_site7624]” it is 7.03; for “TATAAAATGACTATATATAATATTAAAAAAAAAAAA [TGCATGCA_negctrl_site387]” it is 6.88. The result for “AAAAAAAAAAAAAATTCACACACATATAAAAAATTA [CACACA_site8140]” reads 7.1; that for “TAAATTAAGAATTTTACACACATTAAATAAAAAAAA [CACACA_site3638]”, 6.73; that for “AAATTAGGAAATTGCACACAAAAAAAAACATATTAT [CACACA_site4074]”, 7.02. The figure for “TTTTTTTATTTTTTTATAAATGTATTTCTATTATTT [CACACA_negctrl_site1562]” is 6.6. Take “TATAAACATATAAAAAGTACATACCAATTAATATTA [XGTACX_site967]”: the “gcPBM binding intensity (ln)” value worked out at 7.07.

For the sequence “GGATAAAATGCTACGAGTACATAAGCATTTTTCCCT [XGTACX_site7796]”, the “gcPBM binding intensity (ln)” value came out at 7.14. “TCTTTTAAAAATATAAAAAGGAATATATAAAAATGT [CACACA_negctrl_site332]”: the “gcPBM binding intensity (ln)” value is 7.3. The figure for “AATATATTCATCATATCAATATTGTCAAGCAAACGA [TGCATGCA_negctrl_site37]” is 6.95; for “TATTCTGTGTATAAAAGTACAAATATTTAAATGTAT [XGTACX_site8234]” it is 7.2; for “GAATTTATTTTATTTTCACACACAAAAATAAATATC [CACACA_site8762]” it is 7.11. The result for “AATAAATAGATATATACACACATATATGTGTACATA [CACACA_site7476]” reads 7.06. The result for “TTATCCATTTTAATCACACATACTTTACTTTGGAAC [CACACA_site5584]” reads 6.84. As for “TTCTTTAATAAAATAATCTCAAAGAAAATTTTTTCT [GTGCAC_negctrl_site589]”, the “gcPBM binding intensity (ln)” value stood at 6.73. The figure for “TACAATTTAAAACACACACACAATAATACATATATA [CACACA_site1251]” is 7.2; for “TATATTATTTATATTTGTACACAGCGATATGAAATA [XGTACX_site987]” it is 7.2; for “ATATTATTATAAACTTCACACATTTTATGGGTTTTT [CACACA_site4631]” it is 6.8. The result for “CATAAGCACAAGCACAAGCACACATTTATATATATA [CACACA_site882]” reads 8.14.

For “CGCATATTTTATGTTTGTACTCATATGAATATCATA [XGTACX_site4717]”, the “gcPBM binding intensity (ln)” value is 6.97. The result for “TTGTATATATTAAATTGTACTTATTTTTTGTATATA [XGTACX_site3251]” reads 7.12. The figure for “ATAAAAATAAAAAGATGTACGTATTTTTTTTTTTTT [XGTACX_site5329]” is 7.13; for “GAAATAGAGAAACACACACACATATATTTATGTATT [CACACA_site3967]” it is 6.93.

As to “TATAAATAAATGCGTACACACTAATAAAAAAAAAAA [CACACA_site4630]”, the “gcPBM binding intensity (ln)” value amounted to 7.31. The result for “CATTATTATGATAGTTGTACAATTTTTATAAAAAAT [XGTACX_site4411]” reads 7.26; that for “TTTTTTTTTTTTGAGTGTACTAAAATATTACCTTTT [XGTACX_site646]”, 6.83. The result for “TGGAAAAATAGGCACACACACATATATACCTATATA [CACACA_site4843]” reads 7; that for “AATATTATAAATGATACACACTTAAAATACACCCAC [CACACA_site5498]”, 7.45.

Consider “TGAATATTTACTTTAGCACACAATTTGTATTTGATT [CACACA_site960]”, for which the “gcPBM binding intensity (ln)” value is 6.89. The figure for “AATATATTTTAATACACACACACATATATATATATA [CACACA_site5969]” is 9.65; for “TTTTTTTTAAATATCACACACATATAACATATTCTA [CACACA_site7687]” it is 6.97. On to “ATATGTATATAAATGTGTACTTATAAATATATATAT [XGTACX_site3250]”, for which the “gcPBM binding intensity (ln)” value came to 8.47. The result for “TAATATTAATCCTAGTGTACATTAATTTATATGTAT [XGTACX_site3583]” reads 7.08. The result for “ATTATATATATATAAACACACAAATATTTTTATATA [CACACA_site5005]” reads 7.05; that for “ACCTATATAAGTTATACACACAAATATAGATATATA [CACACA_site7356]”, 7.06. The figure for “ATTTAAGATTTAATCACACACATATAGATTATAGAC [CACACA_site7383]” is 7.24; for “ATGAAGAAGTGTAAATGTACATTTTATGTAGAACAA [XGTACX_site6925]” it is 6.87; for “TTTACAGAAAGTTACATACACACTAATATTTACACC [CACACA_site1009]” it is 7.29.

Consider “TTTATATGTATTAAGTGTACACATATAATGTGTTTG [XGTACX_site6629]”, for which the “gcPBM binding intensity (ln)” value came out at 7.29. Consider “TATAAGAGGATATATACACACAAAAATATGTACAGT [CACACA_site6885]”, for which the “gcPBM binding intensity (ln)” value is 7.07. “TTATTTTTTTTTTATTGTACTAGGAAAATTTCGATA [XGTACX_site702]”: the “gcPBM binding intensity (ln)” value came out at 6.83.

Take “CTTCCTTAGGAATGTACACACATATATAATATGTTG [CACACA_site461]”: the “gcPBM binding intensity (ln)” value amounted to 6.95. The figure for “TACAGACAGAAATGCACACACATATTTATATTTATA [CACACA_site7139]” is 7.23; for “AATAAAAAAGAATATACACACATAAATATAAAATAT [CACACA_site683]” it is 6.85.
